Test results taken from PubChem BioAssay AID624417 (National Center for Advancing Translational Sciences (NCATS), 2012).
In all, about 410,000 compounds went through this assay and about 6,400 (1.6%) were called active. This list was built around the results that the source calls inconclusive (neither active nor inactive); the mix of calls is not that of the screen. Calls come from the whole dose curve; as a rule, active = well fitted inhibition curve with a large enough effect; inconclusive = small, poorly fitted or top-dose-only effect; inactive = no such curve, though single readings can be large or run the other way. Potencies of inconclusive entries are left out as doubtful fits.

The molecules below were run against Glucagon-like peptide 1 receptor (Homo sapiens) (UniProt P43220) (assay: qHTS of GLP-1 Receptor Inverse Agonists (Inhibition Mode)). Conditions: HEK293 GLP-1R CRE-luciferase, luminescence, 24 h, GLP-1R form is constitutively active; series mostly up to 38.3 µM.
How it was run: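 Inverse agonism was detected as reduced cAMP-driven luciferase luminescence after 24 h compound treatment. The cells were HEK293 clones expressing constitutively active human GLP-1R with the reporter. Reporter-only and GPR119 cell lines served as counterscreen controls.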
Note: nearly all actives have a fitted effect of over 55% in size.
Potency is the fitted concentration of half-maximal effect; tags give direction and shape of the fitted curve.

Chain of UniProt P43220 (P43220 whole entry, looked up): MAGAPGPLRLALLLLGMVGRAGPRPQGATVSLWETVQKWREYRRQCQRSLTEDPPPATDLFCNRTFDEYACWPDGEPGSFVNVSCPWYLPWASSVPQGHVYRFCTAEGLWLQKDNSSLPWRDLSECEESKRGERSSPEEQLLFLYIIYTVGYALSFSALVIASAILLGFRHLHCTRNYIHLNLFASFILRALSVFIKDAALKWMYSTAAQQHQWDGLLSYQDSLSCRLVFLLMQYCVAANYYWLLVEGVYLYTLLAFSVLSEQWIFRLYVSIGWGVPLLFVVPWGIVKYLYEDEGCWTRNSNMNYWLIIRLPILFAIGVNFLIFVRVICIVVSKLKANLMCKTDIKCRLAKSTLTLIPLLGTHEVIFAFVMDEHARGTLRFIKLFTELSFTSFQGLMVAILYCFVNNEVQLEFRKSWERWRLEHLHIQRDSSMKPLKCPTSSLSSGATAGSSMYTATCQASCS

| SMILES | Potency |
| --- | --- |
| Cc1cc(C)c(CN2CCC(N3CCC(C(=O)NCC4CCCO4)CC3)CC2)cc1C (stereo unspecified) | inconclusive [inhibitor, partial curve, poor fit] |
| CCCCNC(C(=O)Nc1ccc(Cl)c([N+](=O)[O-])c1)c1ccccc1 (stereo unspecified) | inconclusive [inhibitor, single point] |
| COCCCN(C(=S)Nc1cc(Cl)cc(Cl)c1)C(C)c1ccncc1 (stereo unspecified) | inconclusive [inhibitor, single point] |
| Cc1nc(N2CCC(C)CC2)c2oc3ccccc3c2n1 | inconclusive [inhibitor, single point] |
| Cc1ccc(NC(=O)c2ccccc2Br)c(C(=O)c2ccccc2)c1 | inconclusive [inhibitor, single point] |
| O=[N+]([O-])c1ccc(NC(=S)NCCc2ccc(Cl)cc2)cc1 | inactive |
| CC(=O)c1cccc(NC(=O)Nc2csc3c2CCCC3)c1 | inconclusive [inhibitor, single point] |
| Cc1nnc(NC(=O)c2ccccc2)s1 | inactive |
| CC1(C)c2ssc(=S)c2-c2ccccc2N1C(=O)c1ccco1 | inactive |
| CN(CC(=O)N1CCN(Cc2ccccc2)CC1)S(=O)(=O)c1ccc(Br)cc1 | inconclusive [inhibitor, partial curve, poor fit] |
| CC(C)OC(=O)CC(=O)CSc1nc2c(c(-c3cccs3)c1C#N)CCC2 | inconclusive [inhibitor, single point] |
| c1ccc(C(NCCNC(c2ccccc2)c2ccccc2)c2ccccc2)cc1 | inconclusive [inhibitor, partial curve, poor fit] |
| CCCCC(c1nc2ccccc2[nH]1)n1c(=O)c(-c2ccccc2)nc2cc(C)c(C)cc21 (stereo unspecified) | inconclusive [inhibitor, partial curve, poor fit] |
| CC(C)OCC(O)Cn1c(N2CCCC2)nc2c1c(=O)n(C)c(=O)n2C (stereo unspecified) | inactive |
| COc1ccc(Cl)cc1C(=O)Nn1cnc2ccccc2c1=O | inactive |
| C=CCc1cccc(/C=N/NC(=O)CNc2cccc3ccccc23)c1O | inconclusive [inhibitor, partial curve, poor fit] |
| CC(C)(C)OC(=O)N1CCC[C@H]1c1nnc(SCc2ccc(Cl)cc2Cl)o1 | inconclusive [inhibitor, partial curve, poor fit] |
| COc1ccc(COC(=O)CCc2c[nH]c3ccccc23)cc1F | inconclusive [inhibitor, partial curve, poor fit] |
| CCOC(=O)c1sc(NC(=O)c2cc(-c3ccccc3C)nc3ccccc23)c(C#N)c1C | inconclusive [inhibitor, partial curve, poor fit] |
| COc1ccc(-c2cc(C(F)(F)F)nc(SCCC(=O)N3CCOCC3)n2)cc1 | inactive |
| CC(=O)Nc1ccc(-c2noc(-c3csc([C@@H]4C[C@H](O)[C@@H](CO)O4)n3)n2)cc1 | inactive |
| CCOC(=O)c1ccc2c(c1)NCc1cccc(OC)c1O2 | inconclusive [inhibitor, single point] |

| SMILES | Potency |
| --- | --- |
| O=c1c(O)cccc2cc(O)c(O)c(O)c12 | inactive |
| Cc1ccc(C(C)C)c(OCC(O)CN2CCN(CCO)CC2)c1 (stereo unspecified) | inconclusive [inhibitor, partial curve, poor fit] |
| Cc1ccc(S(=O)(=O)N2CCC(C(=O)N[C@@H](C)C(=O)Nc3ccc(F)cc3)CC2)cc1 | inconclusive [inhibitor, partial curve] |
| CCOc1ccccc1C(=O)N1CCN(C(c2ccccc2)c2ccccc2)CC1 | inconclusive [inhibitor, full curve, poor fit] |
| O=C(CSc1nc(-c2ccccc2)c(-c2ccccc2)[nH]1)NCCN1C(=O)CSC1=O | inconclusive [inhibitor, full curve, poor fit] |
| Clc1ccccc1Cn1c(/C=C/c2ccco2)nc2ccccc21 | inconclusive [inhibitor, partial curve, poor fit] |
| O=C(O)CCCNc1cc(N2CCN(C(=O)c3ccco3)CC2)c2noc3c2c1C(=O)c1ccccc1-3 | inactive |
| Cc1cccc(-n2nc(C)c(C(=O)Nc3cc(C)ccc3C)c2-n2cccc2)c1 | inactive |
| CCc1ccc([C@H]2C(C(=O)O)=C[C@@H](C(C)(C)C)N2S(=O)(=O)c2ccc(C)cc2)cc1 | inconclusive [inhibitor, partial curve] |
| CN(CC(=O)Nc1ccccc1Br)C(=O)c1ccccc1OCc1ccccc1Cl | inconclusive [inhibitor, partial curve, poor fit] |
| COc1cc(/C=N/N2CCOCC2)ccc1OCc1ccc(Cl)cc1 | inconclusive [inhibitor, single point] |
| CCOC(=O)c1c(NC(=O)CN(C)C)sc(C(=O)N(CC)CC)c1C | inactive |
| CCCn1c(CN2CCN(C(=O)OCC)CC2)nc2cc(NC(=O)CC)ccc21 | inconclusive [inhibitor, full curve] |
| Cc1ccc(C)c(S(=O)(=O)N2CCN(C(=O)c3ccc(C)s3)CC2)c1 | inconclusive [inhibitor, partial curve, poor fit] |
| O=C(NCc1ccccc1Cl)c1ccc2oc(=O)n(Cc3ccccc3)c2c1 | inconclusive [inhibitor, single point] |
| OC(COc1ccccc1)CN1C2=NCCCN2c2ccccc21 (stereo unspecified) | inconclusive [inhibitor, single point] |
| COc1ccc(NC(=O)CC2NCCNC2=O)c(OC)c1 (stereo unspecified) | inactive |
| Cc1c(CC(=O)NCc2ccc(F)cc2)c(=O)oc2cc(O)c(Cl)cc12 | inactive |
| CC(=O)Nc1ccc(C(=O)COC(=O)c2c(C)noc2C)c(F)c1 | inactive |
| CCCOc1ccc(-c2c(C(=O)N/N=C/c3ccc(OC)cc3)nnn2-c2nonc2N)cc1 | inconclusive [inhibitor, partial curve, poor fit] |
| CSCCC(NC(=O)COc1ccccc1)C(=O)N1CCN(c2ccccc2Cl)CC1 (stereo unspecified) | inconclusive [inhibitor, single point] |
| O=C(c1cccnc1)N1c2ccccc2Sc2ccccc21 | inconclusive [inhibitor, single point] |

| SMILES | Potency |
| --- | --- |
| O=C(CCCn1c(=O)c2cccn2c2ccccc21)NCCc1ccc(Cl)cc1 | inactive |
| CC1(C(=O)N2CCN(Cc3ccccc3Cl)CC2)CC1(Cl)Cl (stereo unspecified) | inconclusive [inhibitor, single point] |
| COCC1CCCN(Cc2nc(C(c3ccccc3)c3ccccc3)no2)C1 (stereo unspecified) | inconclusive [inhibitor, partial curve, poor fit] |
| Cc1cnc(NC(=O)CSc2nnc(-c3ccc(Cl)cc3Cl)n2N)s1 | inconclusive [inhibitor, partial curve, poor fit] |
| CCN(CC(=O)Nc1cc(Cl)ccc1C)C(=O)Cc1sc(C)nc1-c1ccc(F)cc1 | inconclusive [inhibitor, single point] |
| Cc1cccc(NC(=O)COC(=O)c2ccc(S(=O)(=O)N3CCCCCC3)cc2)c1 | inactive |
| Cc1sc(NC(=O)c2cc(-c3ccc(Cl)cc3)nc3ccccc23)c(C(N)=O)c1C | inconclusive [inhibitor, single point] |
| Cc1oc2c(Cl)c(Cl)c(O)c(CN(C)C)c2c1C(=O)c1ccc(Cl)cc1 | inconclusive [inhibitor, partial curve, poor fit] |
| COc1cc(NC(=O)c2csc(N)n2)cc(C(=O)Nc2cccc(C(F)(F)F)c2)c1 | active: 3.98 µM |
| O=C(c1noc2c1CCCCC2)N1CCN(C(c2ccccc2)c2ccccc2)CC1 | inconclusive [inhibitor, partial curve, poor fit] |
| OCC1(Cc2ccc(Cl)cc2)CCN(Cc2ccccc2F)CC1 | inconclusive [inhibitor, partial curve, poor fit] |
| CSc1nn(Cc2ccc(C)cc2)c(N)c1S(=O)(=O)c1ccccc1 | inconclusive [inhibitor, single point] |
| COc1cccc(CNC(=O)c2cc(S(=O)(=O)N3CCCCC3)c[nH]2)c1 | inactive |
| Cc1csc2nc(COC(=O)c3ccccc3NC(=O)c3ccc(C(C)(C)C)cc3)cc(=O)n12 | inactive |
| COc1ccc2oc(=O)c(C(=O)N3CCN(c4ccc(C)cc4)CC3)cc2c1 | inactive |
| COc1ccccc1C(=O)N1CCN=C1c1ccccc1 | inactive |
| COc1ccc(C2CC(c3ccc(Br)cc3)=NN2C(=O)CN2CCCC2)cc1 (stereo unspecified) | inconclusive [inhibitor, single point] |
| COCCSc1nnc(NC(=O)c2ccc3c(c2)OCO3)s1 | inactive |
| Cc1c(CN2CCCC(C(=O)c3cccc(Cl)c3)C2)c(=O)n(-c2ccccc2)n1C (stereo unspecified) | inconclusive [inhibitor, full curve, poor fit] |
| CCCOc1ccc(/C=N/NC(=O)C2CCCN2S(=O)(=O)c2ccc(Cl)cc2)cc1 (stereo unspecified) | inconclusive [inhibitor, partial curve, poor fit] |
| O=C(Nc1ccc([N+](=O)[O-])cc1)Nc1ccc(OC(F)F)c(Cl)c1 | active: 3.55 µM |
| COc1ccccc1N1CCN(C(=O)c2ccc(S(=O)(=O)N3CCCCCC3)cc2)CC1 | inconclusive [inhibitor, single point] |
